Screen size: about 45,000 compounds; about 200 (0.44%) were called active. Inconclusive results (about 7%) are left out. Calls follow the shape of the dose curve; as a rule, active = well fitted activation curve with a large enough effect; inconclusive = small, poorly fitted or top-dose-only effect; inactive = no such curve, though single readings can be large or run the other way. This is one part of the list.
Assay: qHTS of TDP-43 Inhibitors: NCGC Sytravon Library Screen; also: 0% is about no effect; nearly all actives have a fitted effect of over 55% in size
Conditions: yeast TDP-43 toxicity rescue, BacTiter-Glo growth, 24 h; series mostly up to 46.1 µM; growth rescue (activation): at the top concentration
Summary of the method: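 TDP-43-expressing yeast, pregrown in raffinose, seeded at OD600 0.02 in galactose medium with compound for 24 hr at 30 deg C. Growth read by BacTiter-Glo luminescence, so rescue of toxicity appears as activation.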

SMILES	growth rescue (activation)
COc1ccccc1NC(=O)CN1C(=O)C(c2ccc(F)cc2)=NC1(C)C	inactive: 10%
Cc1cc(C)c2c(c1)[C@@H]1C=CC[C@@H]1[C@H](c1ccc(S(=O)(=O)N3CCOCC3)cc1)N2	inactive: 13.4%
COc1ccc(C)cc1NC(=O)CN1CCN(c2ccc(F)cc2)CC1	inactive: 26.6%
Cc1ccc(N(CC(=O)NCCSCc2ccco2)S(=O)(=O)c2ccc(F)cc2)cc1	inactive: 5.66%
CCn1c(CNC(=O)c2ccco2)nnc1SCC(=O)Nc1ccccc1Cl	inactive: 2.92%
CCC(=O)N(NC1=NS(=O)(=O)c2ccccc21)S(=O)(=O)c1ccc(C)cc1	inactive: 10.7%
CC1CC(CC(C)C(=O)NC(=S)Nc2ccc(S(N)(=O)=O)cc2)C(=O)O1 (stereo not drawn)	inactive: 0.795%
O=C1N(Cc2cccc(Cl)c2)C[C@@H]2C[C@@H](c3cccn3-c3ccccn3)N3CCC[C@@]123	inactive: 0.468%
CC(C)Nc1nc(NC(C)(C)C)nc(Oc2ccc(=O)n(-c3ccccc3)n2)n1	inactive: 20.1%
Cc1cc(C)nc(SCC(=O)OCC(=O)Nc2ccccc2)n1	inactive: 4.63%
CN1CCN(C(=O)c2ccc(-c3cnc4cccnn34)cc2)CC1	inactive: -7.3%
CCNc1c(NS(=O)(=O)c2ccc(Br)s2)c(=O)oc2ccccc12	inactive: 4.52%
O=C(c1cc([N+](=O)[O-])ccc1Cl)N1CCN(Cc2ccc3c(c2)OCO3)CC1	inactive: 12.9%
Cc1csc(NC(=O)CS(=O)(=O)c2ccccc2)n1	inactive: 9.56%
COc1cccc(NC(=O)c2cccc(C)c2[N+](=O)[O-])c1	inactive: 6.03%
CCOc1ccc(-n2c(SCc3ccc([N+](=O)[O-])cc3)nnc2-c2ccc(OC)cc2)cc1	inactive: 0.0104%
O=C(Nc1ccc(Cl)cc1)C1C2C=CC3(O2)C1C(=O)N(CCCN1CCCCC1)C3C(=O)NC1CCCCC1 (stereo not drawn)	inactive: 16.9%
O=C(CSc1nnc(-c2ccccc2)n1Cc1ccccc1)NNC(=O)c1ccccc1O	inactive: 9.22%
COc1ccccc1OCC(=O)Nc1cc(S(=O)(=O)N2CCOCC2)ccc1N1CCCCC1	inactive: 26.3%
COC(=O)c1ccc(C)c(NC(=O)CCCN2C(=O)CN(C)C2=O)c1	inactive: 0.124%
COc1ccc(C2OCC3(CO2)SC(=O)NC3=O)cc1OC (stereo not drawn)	inactive: 1.22%
COc1ccccc1C(CNc1ncnc2sc(C)c(C)c12)N(C)C (stereo not drawn)	inactive: -1.91%

SMILES	growth rescue (activation)
Cc1cc(SCC(=O)N2CCCC2=O)nc2ccccc12	inactive: 25.3%
COC(=O)c1c(NC(=O)/C(C#N)=C/c2ccc(OC)cc2)sc2c1C(C(=O)OC)CC2 (stereo not drawn)	inactive: -3.26%
CCC/C(O)=C1\C(=O)CC(C)(C)CC1=NCc1ccccc1	inactive: 11.2%
C/C=C(\C)CN1CCCC(CO)(Cc2ccccc2)C1 (stereo not drawn)	inactive: 2.36%
CCc1ccc(N(CC(=O)NCc2ccc(F)cc2)C(=O)c2csnn2)cc1	inactive: -2.82%
CC(C)NC(=S)NC1(C)CCS(=O)(=O)C1 (stereo not drawn)	inactive: -11%
N#CC(C#N)=Cc1ccc(NC(=O)c2ccc(Br)cc2)cc1	inactive: 21.3%
CC(=O)c1cc2c(cc1N/C(=N/S(=O)(=O)c1ccc(C)cc1)c1ccc(Cl)cc1)OCO2	inactive: 1.68%
CC(C)(C)NC(=O)CN(c1cccc([N+](=O)[O-])c1)S(=O)(=O)c1ccccc1	inactive: 5.44%
O=C(CSc1nccc(=O)[nH]1)Nc1ccc(F)c([N+](=O)[O-])c1	inactive: 19.3%
CCN1CCN(c2ccc(NC(=O)c3cccc(N4CCCC4=O)c3)cc2)CC1	inactive: -0.0349%
CC[C@H](C)[C@H](NC(=O)c1ccc(Cl)cc1)C(=O)OCC(=O)c1c(N)n(C)c(=O)n(C)c1=O	inactive: 10.9%
O=C(CCCC(=O)N(CC(=O)NC1CCCCC1)c1ccccc1F)Nc1ccccn1	inactive: -3.61%
CCNC(=O)C1(C)CCCN(C(=O)c2cccnc2Oc2ccccc2)C1 (stereo not drawn)	inactive: -4.12%
N/C(=N/OC(=O)c1ccccc1Cl)c1nonc1N	inactive: -10.5%
Cc1cc(=O)[nH]c(SCC(=O)N2CCN(c3ccccc3)CC2)n1	inactive: 5.08%
CC(=O)c1cccc(NC(=S)N2CCN(S(=O)(=O)c3ccccc3)CC2)c1	inactive: 3.55%
CCOC(=O)CCC(NC(=O)CCC(=O)NC(CCC(=O)OCC)C(=O)OCC)C(=O)OCC (stereo not drawn)	inactive: -1.61%
O=C(Nc1ccccc1)N1CCCN(Cc2ccccc2F)C1	inactive: 15.4%
COc1ccc(CCNC(=O)CCCOc2ccc(C)cc2)cc1OC	inactive: -1.11%
CN(C)S(=O)(=O)c1ccc(-c2csc(N/N=C/c3ccc(O)cc3)n2)cc1	inactive: -14.5%
CCOc1cccc(C(=O)NC(=S)Nc2cccc(NC(=O)c3ccccc3Cl)c2)c1	inactive: -4.72%

SMILES	growth rescue (activation)
COC(=O)c1c(NC(=S)Nc2ccc(CC(=O)O)cc2)sc(C)c1C	inactive: 32.6%
CCC(C)NC(=O)Cn1cnc2sc(C)c(S(=O)(=O)N3CCN(c4ccccc4OC)CC3)c2c1=O (stereo not drawn)	inactive: -12.9%
O=C(NNC(=O)C12CC3CC(CC(C3)C1)C2)c1cccc(O)c1	inactive: -8.07%
COC(=O)c1ccc(Cn2nc(-c3cc(C)ccc3C)ccc2=O)cc1	inactive: 36%
O=C(c1ccc(CN2CCc3ccccc3C2)cc1)N1CCN(c2ccc(F)cc2)CC1	inactive: 24%
COc1ccccc1NS(=O)(=O)c1ccc(N2CCOCC2)c(N)c1	inactive: 8.6%
Cc1cc([N+](=O)[O-])ccc1NC(=O)CSc1nncn1-c1cccnc1	inactive: 6.83%
Cc1noc(C)c1COc1ncnc2ccccc12	inactive: 0.584%
COc1ccc(NC(=O)CSc2nnc(C)n2C2CCCCC2)cc1	inactive: 0.609%
Cc1ccc(/C=N/NC(=O)Cc2cccs2)o1	inactive: 6.31%
COc1cc(/C=N/NC(=O)Cc2csc(N3CCOCC3)n2)cc(OC)c1O	inactive: -14.8%
COc1ccccc1CC(=O)Nc1ccc2c(c1)OC1(CCCC1)O2	inactive: 6.47%
CCN(CC)CCNC(=O)c1cc2c(-c3cccc(OC)c3)nn(C)c2s1	inactive: 9.95%
COc1cc(/C=C/C(=O)O)ccc1OCc1ccc([N+](=O)[O-])cc1	inactive: 4.63%
O=C(CCSc1ccccc1)N1CCN(c2ccccc2F)CC1	inactive: 25.5%
COc1cc(/C=N/NC(=O)CC(=O)NC2CCCCC2)ccc1O	inactive: 5.17%
CCOC(=O)c1c(CSc2ccccc2)n(C)c2cc(Br)c(O)c(CN(C)C)c12	inactive: 14.7%
COCCNC(=O)C1CCCN(C(=O)c2cc(C)n(C(C)(C)C)n2)CC1 (stereo not drawn)	inactive: 12.4%
COc1ccc2c(c1)nc(NCCCO)n2Cc1ccccc1	inactive: 0.298%
O=C(COC(=O)/C=C/c1ccccc1)NCc1ccccc1Cl	inactive: 27.4%
CS(=O)(=O)NCCSCc1c(F)cccc1Cl	inactive: -3.38%
Cc1nn(-c2ccccc2)c2sc(C(=O)c3c(N)n(C)c(=O)n(C)c3=O)cc12	inactive: 26.7%

SMILES	growth rescue (activation)
CC(O)(c1cccc(F)c1)c1nc(-c2csc3ccccc23)cs1 (stereo not drawn)	inactive: -37.6%
CCCCNC(=O)c1nn2c(C(F)(F)F)cc(-c3ccccc3)nc2c1Br	inactive: 9.46%
CC(C)(C)C(=O)NC(=S)Nc1ccc(S(=O)(=O)Nc2nccs2)cc1	inactive: -15.9%
Cn1cnnc1SC1c2cccc3cccc(c23)C1NS(=O)(=O)c1ccccc1 (stereo not drawn)	inactive: -8.47%
Cc1ccccc1/C(N)=N/O	inactive: 7.78%
COC(=O)[C@H](C)NC(=O)/C=C/c1ccc(OC)cc1	inactive: 2.22%
O=C(Nc1ccc(-n2cnnn2)cc1)c1cn2ccccc2n1	inactive: -12.9%
CCOc1ccccc1/C=C(\C#N)C1=CCCC1	inactive: 9.85%
O=C(O)c1c2c(nc3ccccc13)-c1ccccc1CC2	inactive: 5.27%
COc1ccccc1N(CC(=O)NC1CCCC1)S(=O)(=O)c1ccc(C)cc1	inactive: 13.5%
CCN1CCN(c2ccc(NC(=O)c3ccc(Cl)c(N4CCCC4=O)c3)cc2)CC1	inactive: 7.78%
CCc1cc(=O)oc2c(CNC(Cc3ccccc3)C(=O)O)c(O)ccc12 (stereo not drawn)	inactive: 4.76%
CCC(CC)c1nnc(NC(=O)CCc2ccccc2)s1	inactive: 15.8%
Cc1cc2ccccc2c(=O)n1CC(=O)NC1CCCCCC1	inactive: 32.9%
COc1ccc(NC(=O)C2CCCN(S(C)(=O)=O)C2)c(OC)c1 (stereo not drawn)	inactive: 0.662%
CCCCNC(=S)N/N=C/c1cc(C)ccc1C	inactive: -11.2%
COc1cc(OC)cc(C(=O)Nc2nc3ccc(S(C)(=O)=O)cc3s2)c1	inactive: 13.8%
COc1ccc([N+](=O)[O-])cc1NC(=O)COC(=O)/C=C/c1ccco1	inactive: 27.5%
CN(Cc1ccccc1)C(=O)CSc1nc2ccccc2[nH]1	inactive: 27.4%
CSc1nsc2nc(=O)c(/C=C3\C(C)=Nc4ccccc43)c(N)n12	inactive: -2.87%
COc1ccccc1Oc1ncnc2c1oc1ccccc12	inactive: 5.25%
CCC(C)c1ccc(-n2c(=O)c3ccccc3n3c(=S)[nH]nc23)cc1 (stereo not drawn)	inactive: 12%

SMILES	growth rescue (activation)
Cc1ccc(CNC(=O)C(c2ccccc2)c2ccccc2)cc1	inactive: 9.27%
COc1ccc(OC)c(NC(=O)c2sc3nc(C)cc(C)c3c2N)c1	inactive: -3.06%
CC(=O)Cn1c(C(F)(F)F)nc2ccccc21	inactive: 13.3%
Cc1cccc(OCC(=O)NCCNC(=O)c2cccnc2)c1	inactive: 10.2%
CNc1nc2c(c(=O)[nH]c(=O)n2C)n1CCCc1ccccc1	inactive: -2.71%
Cc1cccc(N(CC(=O)NCc2ccco2)C(=O)CCC(=O)Nc2nccs2)c1	inactive: 7.07%
N#C/C=C1/NC(=O)c2ccccc2S1	inactive: 4.17%
CC(C)c1ccc(C(=O)COC(=O)C(O)c2ccccc2)cc1 (stereo not drawn)	inactive: 21.4%
COc1cc(/C=N/NS(=O)(=O)c2ccc3ccccc3c2)ccc1OCc1ccc(C(=O)O)cc1	inactive: 9.07%
CCOC(=O)c1ccccc1NC(=O)C=C(C)C	inactive: 16.6%
CC(C)(C)c1ccc(S(=O)(=O)N2CCNC(=O)C2)cc1	inactive: 19.1%
O=C(c1cc([N+](=O)[O-])ccc1N1CCOCC1)N1CCCC1	inactive: 10.3%
CCOC(=O)C1=C(C)NC2=C(C(=O)OC2)C1c1ccccc1 (stereo not drawn)	inactive: 16.1%
COc1ccc(/C=C/C(=O)NCCCc2ccccc2)cc1	inactive: 7.1%
Cn1c(=O)c2c(-c3ccccc3F)c3c(nc2n(C)c1=O)-c1ccccc1C3O (stereo not drawn)	inactive: -2.6%
CCOc1ccc2nc(N/C(N)=N/C(=S)Nc3cccc(OC)c3)nc(C)c2c1	inactive: 15.9%
COc1cc(/C=N/NC(=O)c2cccc3ccccc23)cc(OC)c1OC	inactive: 2.28%
CC(=O)Oc1ccc2nc(-c3ccco3)oc(=O)c2c1	inactive: -7.28%
CC(=O)c1cnc2ncnn2c1C	inactive: 1.44%
Cc1nn(-c2ccccc2)c(Cl)c1/C=N/NC(=O)c1ccccc1NS(=O)(=O)c1cccs1	inactive: 10.2%

— PubChem BioAssay AID1347073 (National Center for Advancing Translational Sciences (NCATS), 2019)
